Results published in PubChem BioAssay AID1745845 (National Center for Advancing Translational Sciences (NCATS), 2022).
The whole screen tested about 360,000 compounds, of which about 2,600 (0.72%) were called active. The inconclusive results got no clear call from the source; some entries with a clear call stand among them for comparison. Calls come from the whole dose curve; as a rule, active = well fitted inhibition curve with a large enough effect; inconclusive = small, poorly fitted or top-dose-only effect; inactive = no such curve, though single readings can be large or run the other way. Potencies of inconclusive entries are doubtful fits and often do not repeat.

Test: Primary qHTS for Inhibitors of ATXN expression; note: nearly all actives have a fitted effect of over 55% in size
Conditions: HEK-293 ATXN2-luciferase reporter, luminescence, 24 h; series mostly up to 57 µM
Method in brief: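 qHTS (up to 57 uM final) was run with 24 h compound exposure of reporter cells at 37 °C. Each well was multiplexed: SteadyGlo luminescence measured ATXN2-luciferase expression after a fluorogenic Gly-Phe-AFC viability readout (25 uM final).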
Potency is the fitted concentration of half-maximal effect; tags give direction and shape of the fitted curve.

Potency, inactive:
COc1ccc(NC(=O)c2sc3nc4c(c(-c5ccc(OC)cc5)c3c2N)C(=O)CC(C)(C)C4)cc1
Cc1cc([N+](=O)[O-])ccc1NCc1ccc2ccccc2c1
O=C(Nc1ccc(Oc2cccc(C(F)(F)F)c2)nc1)c1ccco1
COc1ccc(N2CCN(C(=O)c3ccc(CNS(=O)(=O)c4cc(C)ccc4C)cc3)CC2)cc1
O=C(NC1CCCC1)C(c1ccsc1)N(C(=O)Cc1cccs1)c1ccccc1 (stereo not given)
COc1ccc(-c2nnc(SCC(=O)NCc3ccco3)o2)cc1
Cc1ccc(-c2[nH]c3cc(C(N)=O)ccc3c(=O)c2O)cc1
COc1ccc(C)cc1NC(=O)c1cc2c(=O)n(Cc3cccnc3)ccc2nc1C
CCOC(=O)C1=C(C)NC(C)=C(C(=O)OC)C1c1cccc([N+](=O)[O-])c1 (stereo not given)
CCOC(=O)N1CCN(c2cc(=O)n(-c3cccc(C)c3)c(=O)[nH]2)CC1
CC1CCCN(Cc2nc3c(c(=O)n(C)c(=O)n3C)n2Cc2ccc(Cl)cc2)C1 (stereo not given)
CCOC(=O)CCCNC(=O)c1cncc(Br)c1
COc1cc(Br)ccc1NC(=O)c1ccccc1-c1ccccc1C(=O)O
CSc1nc2cc(S(=O)(=O)N3CCCCC3)ccc2s1
CC1CN(CCOc2ccccc2C(C)C)CC(C)O1 (stereo not given)
Cc1ccc(NC(=O)C2CC(=O)N(Cc3ccccc3)C2)cc1S(=O)(=O)N1CCCCCC1 (stereo not given)
O=C(O)c1ccccc1C(=O)N1CCN(S(=O)(=O)c2cccc(C(F)(F)F)c2)CC1
COc1ccc(N(CC(=O)Nc2cc(C)ccc2C)S(=O)(=O)c2c(C)noc2C)cc1
O=C(NCc1ccco1)c1ccc2c(c1)N(Cc1c(F)cccc1Cl)C(=O)c1ccccc1S2
CCc1nc2nc(C)c(NS(=O)(=O)c3ccc(C)cc3)c(=O)n2[nH]1

Potency, inconclusive:
CC(C)[C@H](NC(=O)c1ccc([N+](=O)[O-])cc1Cl)C(=O)N1CCN(C/C=C/c2ccccc2)CC1 20 µM [inhibitor, single point]
CCOC(=O)c1c(-c2ccc(-c3ccccc3)cc2)csc1NC(=O)CNCCN(C)C 31.6 µM [inhibitor, single point]
CCOC(=O)c1ccc(N2C(=O)c3[nH]nc(-c4ccc(OCC)cc4)c3C2c2cccs2)cc1 (stereo not given) 39.8 µM [inhibitor, single point]
COc1ccc(-c2nc3scc(CCNC(=O)c4cccc(Br)c4)n3n2)cc1 25.1 µM [inhibitor, single point]
CC(C)N(Cc1ccccc1)C(=O)C1CCCN(c2ncnc3onc(-c4ccc(F)cc4)c23)C1 (stereo not given) 39.8 µM [inhibitor, single point]
OC[C@@H]1CN(Cc2ccc(-c3ccccc3)cc2)C[C@H](n2cnc3c(NC4CCC4)ncnc32)O1 17.8 µM [inhibitor, partial curve, poor fit]
COc1ccnc(Oc2cccc(C(F)(F)F)c2)c1C(=O)N/C=N/OCc1ccccc1F 2.38 µM [inhibitor, partial curve, poor fit]
COc1ccc(OC)c(CCNC(=O)c2cnn(-c3ccc(C)cc3C)c2C2CCN(C(=O)OC(C)(C)C)CC2)c1 39.8 µM [inhibitor, single point]
CC1=C(C(=O)OC2CCCCC2)C(c2ccco2)C2=C(CC(C)(C)CC2=O)N1 (stereo not given) 28.2 µM [inhibitor, single point]
O=C1c2ccccc2NC(c2ccc(-c3cccc([N+](=O)[O-])c3)o2)N1O (stereo not given) 28.2 µM [inhibitor, single point]
CC(=O)C(C(c1ccccc1)N1CCCc2ccccc21)N1CCOCC1 (stereo not given) 17.8 µM [inhibitor, partial curve, poor fit]
Cc1cccc(OCCn2c(NC(=O)c3ccco3)nc3ccccc32)c1 35.5 µM [inhibitor, single point]
Cc1ccc(F)cc1CNC(=O)c1cc(COc2ccc3ncccc3c2)on1 15.8 µM [inhibitor, partial curve, poor fit]
CC1Cc2ccccc2N1S(=O)(=O)c1nnc(NC(=O)c2cccc(F)c2)s1 (stereo not given) 39.8 µM [inhibitor, single point]
Oc1ccc(C[C@@H]2CNCCN2CCCCC2CCCCC2)cc1 35.5 µM [inhibitor, single point]
Cc1ccc(NC(=O)CSc2nc(=O)n(Cc3ccco3)c3c2CCC3)cc1F 22.4 µM [inhibitor, partial curve, poor fit]
COc1cc([N+](=O)[O-])cc(/C=N/NC(=O)C(C)Nc2ccccc2C)c1O (stereo not given) 15.8 µM [inhibitor, partial curve]
COc1ccc(CC(=O)NNC(=O)CCC(=O)Nc2cc(C)ccc2C)cc1 37.7 µM [inhibitor, single point]
OC(CON=C1c2ccccc2-c2ccccc21)CN1CCNCC1 (stereo not given) 4.23 µM [inhibitor, partial curve, poor fit]
CCC1(c2ccc(Cl)cc2)NC(=O)N(CC(=O)NC2CCCC(C)C2C)C1=O (stereo not given) 20 µM [inhibitor, partial curve, poor fit]
O=C(CCc1nc2ccccc2c(=O)[nH]1)Nc1cc(Cl)ccc1N1CCCC1 14.1 µM [inhibitor, partial curve]
Fc1ccc(F)c(CNc2ncnc3cc(Cl)ccc23)c1 7.08 µM [inhibitor, partial curve, poor fit]
CCC(C)Sc1cccc(-c2nc3ccccn3c2NCc2ccccc2)c1 (stereo not given) 39.8 µM [inhibitor, single point]
COc1cc2ccccc2ccc1=NO 39.8 µM [inhibitor, single point]
Cc1cccc(COCC(Cc2ccccc2)N2CCN(C(=O)c3ccc(Cl)c(Cl)c3)CCC2=O)c1 (stereo not given) 31.6 µM [inhibitor, partial curve]
CCOC(=O)C1=CCN(S(=O)(=O)c2ccccc2Cl)C1c1ccc(Cl)c(Cl)c1 (stereo not given) 39.8 µM [inhibitor, single point]
COc1cc2c(cc1OC)/C(=C/C(=O)c1ccc(OC)c([N+](=O)[O-])c1)NCC2 12.6 µM [inhibitor, partial curve, poor fit]
COc1ccc(Nc2cc(C)c3cc(NC(=O)Cc4ccc(Cl)cc4)ccc3n2)cc1 25.1 µM [inhibitor, single point]
CCN(CC)CCNC(=O)c1cn(CCOC)c(=O)c2c1c1ccccc1n2C 0.447 µM [inhibitor, full curve, poor fit]
Cc1cccc(CN2C(=O)[C@H]3Cc4c([nH]c5ccccc45)C(C)(C)N3C2=O)c1 39.8 µM [inhibitor, single point]
CC1CCCCN1S(=O)(=O)c1ccc(S(=O)(=O)N2CCN(c3ccccc3)CC2)cc1 (stereo not given) 17.8 µM [inhibitor, partial curve, poor fit]
CCOC(=O)c1cc2sccc2n1CC(=O)N1c2ccccc2CC1C (stereo not given) 15.8 µM [inhibitor, partial curve, poor fit]
C/C(=N\NC(=O)c1ccc(Cl)cc1)c1ccccn1 1.58 µM [inhibitor, full curve, poor fit]
Cc1ccc(/C=N/NC(=O)c2cc3ccccc3cc2O)o1 31.6 µM [inhibitor, single point]
COc1ccc([N+](=O)[O-])cc1NC(=O)Cn1ccc(C(F)(F)F)n1 37.7 µM [inhibitor, single point]
COc1cc2c(cc1OC)C(C)N(C(=O)c1cc3c(C)cc(C)cc3[nH]1)CC2 (stereo not given) 12.6 µM [inhibitor, partial curve]
OC(c1cc(F)cc(Cl)c1)c1ncc(-c2cccc(C(F)(F)F)c2)[nH]1 (stereo not given) 35.5 µM [inhibitor, single point]
COC(=O)C1=C(C(=O)OC)[C@@H]2N(C)c3ccc(OC)cc3[C@@]23C[C@@H](C(=O)OC)N(C(=O)c2ccc(Br)cc2)C3=N1 31.6 µM [inhibitor, partial curve]
NC(Cc1ccc(Cl)cc1)c1csc(Nc2nccc(C(F)(F)F)n2)n1 (stereo not given) 39.8 µM [inhibitor, single point]
O=C(N/N=C/c1c[nH]c2ccccc12)C1CC1(c1ccccc1)c1ccccc1 (stereo not given) 39.8 µM [inhibitor, single point]
O=C(O)c1cccc(NC2=C(Cl)C(=O)c3ccccc3C2=O)c1 39.8 µM [inhibitor, single point]

Potency, active:
CC(C)C[C@H](NC(=O)CNC(=O)c1cc(Cl)ccc1Cl)B1OC(=O)CC(CC(=O)O)(C(=O)O)O1 (stereo not given in full) 0.217 µM
COc1ccc(N(C(=O)CCl)C(C(=O)NC2CCCCC2)c2cccnc2)cc1 (stereo not given) 14.1 µM
COc1ccc(CS(=O)(=O)/C(Cl)=C(/Cl)C(=O)Nc2ccc(OC)nc2)cc1 12.6 µM
O=C(CCCOc1ccc(Cl)cc1Cl)N/N=C/c1ccccc1O 25.1 µM
